Test results as given in the supplement of paper PMC4466236.
The full ranking holds about 33,000 sequences; the median of “E-score (dimensionless, -0.5 to 0.5)” is about -0.058, and the highest 2% start at about 0.35. The list shows a part of the results.

Test system: MvaT
Assay: PBM 8-mer E-score (mean of HK and ME arrays) (E-score (dimensionless, -0.5 to 0.5)); higher = stronger relative binding preference; most listed sequences are background and not binding sites
Summary of the method: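 Full-length P. aeruginosa MvaT carrying an N-terminal glutathione S-transferase tag was tested by protein binding microarray following a previously described protocol. Two universal double-stranded 60-mer arrays, ME and HK, were used, each with a constant 25-mer primer region and a variable 35-mer region covering all 8-mers. The rank-based E-score is the mean of the two arrays, parsed with a custom script. Its range runs from -0.5 to 0.5 for each 8-mer.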

Row | Sequence | PBM 8-mer E-score
1 | AAGAGATG | -0.0906
2 | CTGGACCA | -0.177
3 | CACTATTC | 0.0563
4 | CATGCACG | -0.217
5 | AAGGATGA | 0.0205
6 | ATCGGCTC | -0.211
7 | ACTTCGAG | -0.0815
8 | GGTGCCAA | -0.115
9 | ACACTTGG | 0.0839
10 | AGACGTTA | -0.0883
11 | GACCTTGA | -0.138
12 | AGGTAGGG | -0.206
13 | AAACATCA | 0.194
14 | AGAATTCC | 0.0415
15 | CAGACGGG | -0.162
16 | AGGATTGC | -0.0862
17 | AAATCCCG | 0.00917
18 | CAGGGATC | -0.197
19 | GACAAATA | 0.297
20 | AGGACTCG | -0.265
21 | TGATTGCA | 0.0321
22 | ACCCGCAC | -0.0475
23 | ATGAGCCA | -0.115
24 | CCCCACGC | -0.208
25 | CGCCGCTC | -0.268
26 | ATGATATC | 0.131
27 | AATAAGAC | 0.252
28 | CGTCTAGC | -0.205

Row | Sequence | PBM 8-mer E-score
29 | AAGCCCGA | -0.275
30 | CCCGCCTA | -0.181
31 | GGATTAAC | 0.111
32 | ACACAATC | 0.0501
33 | CGAGAATC | -0.265
34 | ATCGACCA | -0.0716
35 | TAAGGGAA | 0.144
36 | CATCCGGC | -0.182
37 | TTAAAGAA | 0.219
38 | ATTAGATG | 0.263
39 | CATTCAAC | 0.0852
40 | CAAATAAG | 0.262
41 | AGTAACTA | 0.274
42 | CGTTATAC | 0.21
43 | CCTCGGCC | -0.271
44 | ACACCCAC | -0.036
45 | CAGTAATG | 0.146
46 | TCACTAGA | -0.11
47 | CTTAGTCC | 0.0516
48 | TAGCCGAA | -0.0401
49 | TACCGCTA | -0.019
50 | CGTGTGGA | -0.0774
51 | AGAACCGC | -0.132
52 | AGACACTC | -0.161
53 | ACTTCAAC | 0.256
54 | GAGACACA | -0.0772
55 | AAAAACTA | 0.301
